Experimental findings from publication PMC4336329 (PLoS ONE, 2015) are described below.

The campaign covered roughly 310,000 compounds. About 14,000 (4.5%) showed an effect of 50% or more. The effect is printed as a negative number. The list shows a part of the results.
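Further: peak tail current of the secondary pulse compared with the same well before compound.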

Sequence of human ether-à-go-go-related gene (hERG) potassium channel (Q12809 whole entry, looked up): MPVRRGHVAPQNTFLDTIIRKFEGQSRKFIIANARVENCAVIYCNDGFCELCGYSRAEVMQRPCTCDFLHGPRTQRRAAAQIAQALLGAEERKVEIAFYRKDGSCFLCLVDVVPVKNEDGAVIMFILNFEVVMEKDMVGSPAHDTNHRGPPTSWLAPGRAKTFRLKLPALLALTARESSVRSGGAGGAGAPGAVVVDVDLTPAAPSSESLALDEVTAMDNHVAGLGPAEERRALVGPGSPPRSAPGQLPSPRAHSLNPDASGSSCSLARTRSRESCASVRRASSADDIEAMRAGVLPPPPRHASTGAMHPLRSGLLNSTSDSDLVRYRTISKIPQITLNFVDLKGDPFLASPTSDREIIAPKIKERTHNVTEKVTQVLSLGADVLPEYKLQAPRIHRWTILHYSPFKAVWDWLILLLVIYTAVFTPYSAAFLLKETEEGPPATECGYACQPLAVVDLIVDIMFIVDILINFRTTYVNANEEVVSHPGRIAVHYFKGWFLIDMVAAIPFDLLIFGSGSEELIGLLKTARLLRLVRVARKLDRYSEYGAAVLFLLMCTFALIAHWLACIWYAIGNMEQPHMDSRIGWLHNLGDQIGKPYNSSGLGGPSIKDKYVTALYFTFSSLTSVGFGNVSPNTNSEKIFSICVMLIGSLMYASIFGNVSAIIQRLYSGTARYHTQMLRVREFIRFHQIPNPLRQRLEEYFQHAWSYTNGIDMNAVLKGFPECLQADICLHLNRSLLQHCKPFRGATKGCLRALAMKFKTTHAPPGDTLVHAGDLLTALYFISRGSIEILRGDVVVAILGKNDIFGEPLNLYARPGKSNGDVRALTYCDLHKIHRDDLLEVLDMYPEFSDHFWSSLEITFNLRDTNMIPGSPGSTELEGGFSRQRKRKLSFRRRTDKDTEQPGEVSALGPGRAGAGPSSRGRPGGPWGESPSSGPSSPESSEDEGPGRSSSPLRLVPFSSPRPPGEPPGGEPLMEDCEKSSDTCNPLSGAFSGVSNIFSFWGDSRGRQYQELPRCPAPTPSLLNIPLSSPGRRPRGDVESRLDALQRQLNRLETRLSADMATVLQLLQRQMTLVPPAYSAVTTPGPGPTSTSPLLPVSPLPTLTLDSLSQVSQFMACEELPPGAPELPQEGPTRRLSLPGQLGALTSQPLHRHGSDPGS

This assay has as its target human ether-à-go-go-related gene (hERG) potassium channel (human, UniProt Q12809). The experiment in a line: primary screen, population patch clamp on CHO cells stably expressing hERG.
On to `COc1ccc(CCNC(=S)Nc2cc(C)ccc2C)cc1`, for which the “hERG current change (%, negative = inhibition) at 10uM” value is given as -15.9%.

With `C/C(=C/Cc1c(O)cc2oc(C)cc(=O)c2c1O)COC1OC(CO)C(O)C(O)C1O` (centres unmarked), the “hERG current change (%, negative = inhibition) at 10uM” value is reported as 2.15%.

As for `O=C(Nc1cccc(-c2cccc(F)c2)c1)C1CCN(Cc2ccc(CO)o2)CC1`, the “hERG current change (%, negative = inhibition) at 10uM” value is reported as -70.3%.

Turning to `CCC(=O)Nc1cc(C)c(OC)c(C)c1`, the “hERG current change (%, negative = inhibition) at 10uM” value came out at 21%.

For `COc1ccc(NC(C)c2cc(Cl)ccc2O)cc1` (centres unmarked), the “hERG current change (%, negative = inhibition) at 10uM” value is recorded as 1.76%.

Consider `CCOC(=O)C1C2C=CC(CC2)N1c1ccccc1` (centres unmarked), for which the “hERG current change (%, negative = inhibition) at 10uM” value is recorded as -18.6%.

On to `Cc1[nH][nH]c(=O)c1C(c1c(C)[nH][nH]c1=O)c1cn(Cc2ccc(Cl)c(Cl)c2)c2ccccc12`, for which the “hERG current change (%, negative = inhibition) at 10uM” value stood at 3.86%.

Consider `Cc1ccsc1/C=C1/SC(N2CC(C)OC(C)C2)=NC1=O` (centres unmarked), for which the “hERG current change (%, negative = inhibition) at 10uM” value turned out to be 2.64%.

`O=S(=O)(c1ccc(OCC(O)CN2CCN(c3ccccc3O)CC2)cc1)N1CCOCC1` (centres unmarked): the “hERG current change (%, negative = inhibition) at 10uM” value is listed as -6.91%.

Consider `O=C(/C=C/c1ccccc1)N1CCC(c2ccccc2)C1` (centres unmarked), for which the “hERG current change (%, negative = inhibition) at 10uM” value is recorded as -57.6%.

As to `COC(=O)c1cc(OC)cc(O)c1C(=O)c1c(O)cc(C)cc1O`, the “hERG current change (%, negative = inhibition) at 10uM” value is 9.23%.

For the compound `O=C(CNC(=O)N1CC(=O)Nc2ccccc21)Nc1ccccc1F`, the “hERG current change (%, negative = inhibition) at 10uM” value is 18.5%.

As to `O=C(CN1C(=O)CSc2ncccc21)Nc1cccc(Cl)c1`, the “hERG current change (%, negative = inhibition) at 10uM” value is -25.4%.

Regarding `CCc1cccc(CC)c1NC(=O)c1ccc(-n2cncn2)nc1`, the “hERG current change (%, negative = inhibition) at 10uM” value was -3.1%.

Take `CCOc1cc2[nH]c(=O)n(Cc3ccccc3)c(=O)c2cc1OCC`: the “hERG current change (%, negative = inhibition) at 10uM” value was -2.18%.

As for `COc1ccc(OCc2nnc(SCC(=O)NC3CC4CCC3C4)o2)cc1` (centres unmarked), the “hERG current change (%, negative = inhibition) at 10uM” value came to 9.36%.

In the case of `O=C(O)COc1ccc(/C=N/n2cnc3scc(-c4cccs4)c3c2=O)cc1`, the “hERG current change (%, negative = inhibition) at 10uM” value was determined as 13.2%.

As for `CC(=O)c1ccc(OCc2cc([N+](=O)[O-])cc3c2OCOC3)cc1`, the “hERG current change (%, negative = inhibition) at 10uM” value was found to be 4.27%.

`O=S(=O)(NCc1ccccc1)c1ccc(S(=O)(=O)N(Cc2ccccn2)C2CCCC2)cc1`: the “hERG current change (%, negative = inhibition) at 10uM” value is on record as -7.51%.

On to `CC1CC(C)CN(CCCNC(=O)C2CCN(S(=O)(=O)N3CCCCC3)CC2)C1` (centres unmarked), for which the “hERG current change (%, negative = inhibition) at 10uM” value is given as -18.3%.

As to `CCCCN(C(=O)CCNC(=O)NC12CC3CC(CC(C3)C1)C2)c1c(N)n(CCCC)c(=O)[nH]c1=O`, the “hERG current change (%, negative = inhibition) at 10uM” value stood at 13.4%.

As for `Cc1ccc(S(=O)(=O)Nc2c(O)c3ccccc3oc2=O)cc1`, the “hERG current change (%, negative = inhibition) at 10uM” value was determined as 12.6%.

As to `CCOC(=O)N1CCN(S(=O)(=O)c2ccc(OC)c3ccccc23)CC1`, the “hERG current change (%, negative = inhibition) at 10uM” value is listed as -31.9%.

`COc1ccc(N2CCN(C(CNC(=O)CC(C)(C)C)c3ccc4c(c3)OCO4)CC2)cc1` (centres unmarked): the “hERG current change (%, negative = inhibition) at 10uM” value was -21.3%.

Regarding `Cc1nc(NS(=O)(=O)c2ccccc2C)c2c3c(sc2n1)CCC3`, the “hERG current change (%, negative = inhibition) at 10uM” value is given as -12.5%.

For `O=C(Nc1cccc(C(F)(F)F)c1)c1n[nH]c(Cn2cncn2)n1`, the “hERG current change (%, negative = inhibition) at 10uM” value is -1.92%.

On to `O=C(O)c1ccc(Nc2nc(-c3ccccc3)c3ccccc3n2)cc1`, for which the “hERG current change (%, negative = inhibition) at 10uM” value came to 0.75%.

With `CCN(C(=O)COC(=O)/C=C/c1cccc([N+](=O)[O-])c1)c1c(N)n(Cc2ccccc2)c(=O)[nH]c1=O`, the “hERG current change (%, negative = inhibition) at 10uM” value came to 14.1%.

In the case of `Cc1ccc(CNC(=O)C2CCC(CNc3nc(=S)[nH]c4ccccc34)CC2)cc1` (centres unmarked), the “hERG current change (%, negative = inhibition) at 10uM” value is listed as 14.2%.

Turning to `COC(=O)CCN(C1CCCCC1)S(=O)(=O)c1ccc(S(=O)(=O)NC2CCCCC2)cc1`, the “hERG current change (%, negative = inhibition) at 10uM” value stood at 2.73%.

`O=Cc1cc(N=Nc2cccc(C(=O)O)c2)ccc1O`: the “hERG current change (%, negative = inhibition) at 10uM” value worked out at 15.1%.

For the compound `N#Cc1c(C(F)(F)F)cc(-c2ccccc2)nc1SCCN1CCOCC1`, the “hERG current change (%, negative = inhibition) at 10uM” value is listed as -3.77%.

Consider `Cc1cccc(OCCCC(=O)Nc2ccc(N3CCCCC3)cc2)c1`, for which the “hERG current change (%, negative = inhibition) at 10uM” value came to 5.49%.

As to `Cc1nn(-c2ccccc2)c(N)c1Sc1cccc([N+](=O)[O-])c1.Cl`, the “hERG current change (%, negative = inhibition) at 10uM” value is reported as -65.9%.

As to `O=C(O)c1ccc(COc2ccc3ccccc3c2/C=C2/NC(=O)N(c3ccccc3)C2=O)cc1`, the “hERG current change (%, negative = inhibition) at 10uM” value is -8.37%.

Turning to `COCCCNC(=S)N(CCN(C)C)Cc1cc2cc3c(cc2[nH]c1=O)OCCO3`, the “hERG current change (%, negative = inhibition) at 10uM” value was determined as 25.5%.

For `Cc1ccc(S(=O)(=O)N/N=C/c2cccc([N+](=O)[O-])c2)cc1`, the “hERG current change (%, negative = inhibition) at 10uM” value is on record as 7.95%.

For `Cc1cccc(NC(=O)CCS(=O)(=O)c2cccc3nonc23)c1C`, the “hERG current change (%, negative = inhibition) at 10uM” value is 7.7%.

`COC(=O)CSc1nnc(CNc2nc(-c3ccccc3)cs2)n1C`: the “hERG current change (%, negative = inhibition) at 10uM” value is on record as -2.27%.

As for `CC(=O)N(C)c1ccc(NC(=O)C(F)(F)F)cc1`, the “hERG current change (%, negative = inhibition) at 10uM” value worked out at 0.386%.

Turning to `O=C1N=C(N2CCOCC2)S/C1=C1\C(=O)N(Cc2ccccc2)c2ccccc21`, the “hERG current change (%, negative = inhibition) at 10uM” value stood at 6.48%.

Regarding `Brc1cc2c(cc1CN1CCN(c3ccccc3)CC1)OCCO2`, the “hERG current change (%, negative = inhibition) at 10uM” value is listed as -8.97%.

For the compound `COc1cccc(OC)c1C(=O)Nc1sc2c(c1C(N)=O)CCN(Cc1ccccc1)C2.Cl`, the “hERG current change (%, negative = inhibition) at 10uM” value is listed as -14.2%.

With `CCOC(=O)c1sc(NC(=O)c2ccco2)nc1-c1ccccc1`, the “hERG current change (%, negative = inhibition) at 10uM” value was 10.3%.
